Results taken from the supplement of paper PMC4967469.
IC50 is the fitted dose that halves viability relative to control wells, and lower means more sensitive; a limit (>, <) means that the fit lies beyond the doses tested. The AUC spans the tested range (256-fold, ending at the top dose) of the same fit; it is 1 without any effect and falls as sensitivity rises. For some of these results: The top dose, if marked as inferred, comes from the curve model; the source does not state it.

Columns and labels:
Assay in all cases: Viability of human cancer cell lines after 72 h of drug (GDSC screen)
[1] = compound: Cc1cc(C(C)Nc2ccccc2)c2nc(N3CCOCC3)cc(=O)n2c1 [TGX221]; conditions: top dose 10 µM
Procedure: (§1)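 Human cancer cell lines in 384-well plates, medium with 10% serum, drug for 72 h over a 256-fold dose range (nine 2-fold or five 4-fold steps up to the top dose). Adherent lines were fixed and stained with the nucleic acid dye Syto60, suspension lines read with resazurin; signal relative to control wells, capped at 0 and 100%. One two-parameter sigmoid per drug and line, fitted in a mixed model over all curves with the slope shared within a line.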

[2] = compound: CCN(CC)CCCCNc1ncc2cc(-c3cc(OC)cc(OC)c3)c(NC(=O)NC(C)(C)C)nc2n1 [PD-173074]; conditions: top dose 2 µM; top dose inferred
Procedure: as §1

[3] = compound: CS(=O)(=O)CCNCc1ccc(-c2ccc3ncnc(Nc4ccc(OCc5cccc(F)c5)c(Cl)c4)c3c2)o1 [Lapatinib]; conditions: top dose 2 µM
Procedure: as §1

[4] = compound: CN(C)CCOc1ccc(-c2nc(-c3ccncc3)c(-c3ccc4c(c3)CC/C4=N\O)[nH]2)cc1 [SB590885]; conditions: top dose 5 µM; top dose inferred
Procedure: as §1

Row | Cell Line | AUC [1] | IC50 [1] [nM] | AUC [2] | IC50 [2] [nM] | AUC [3] | IC50 [3] [nM] | AUC [4] | IC50 [4] [nM]
1 | GI-ME-N (neuroblastoma, adherent) | 0.811 | 7870 | 0.869 | > 2000 | 0.937 | > 2000 | 0.961 | > 5000
2 | GOTO (neuroblastoma, adherent) | 0.976 | > 10000 | 0.907 | > 2000 | 0.983 | > 2000 | 0.93 | > 5000
3 | GR-ST (lymphoblastic leukaemia, suspension) | 0.943 | > 10000 | 0.893 | > 2000 | 0.976 | > 2000 | 0.944 | > 5000
4 | GRANTA-519 (B-cell lymphoma, suspension) | 0.985 | > 10000 | 0.991 | > 2000 | 0.99 | > 2000 | 0.991 | > 5000
5 | GT3TKB (stomach, adherent) | 0.987 | > 10000 | 0.963 | > 2000 | 0.952 | > 2000 | 0.989 | > 5000
6 | H9 (lymphoid neoplasm, suspension) | 0.975 | > 10000 | 0.991 | > 2000 | 0.986 | > 2000 | 0.992 | > 5000
7 | H-EMC-SS (chondrosarcoma, adherent) | 0.97 | > 10000 | 0.574 | 211 | 0.979 | > 2000 | 0.538 | 409
8 | HA7-RCC (kidney, adherent) | 0.927 | > 10000 | 0.982 | > 2000 | 0.978 | > 2000 | 0.96 | > 5000
9 | HAL-01 (lymphoblastic leukaemia, suspension) | 0.812 | 4580 | 0.938 | > 2000 | 0.989 | > 2000 | 0.986 | > 5000
10 | HC-1 (hairy cell leukaemia, suspension) | 0.9 | > 10000 | 0.982 | > 2000 | 0.968 | > 2000 | 0.987 | > 5000
11 | HCC2157 (breast, suspension) | 0.928 | > 10000 | 0.958 | > 2000 | 0.93 | > 2000 | 0.987 | > 5000
12 | HD-MY-Z (Hodgkin lymphoma, adherent) | 0.956 | > 10000 | 0.986 | > 2000 | 0.975 | > 2000 | 0.959 | > 5000
13 | HDLM-2 (Hodgkin lymphoma, suspension) | 0.984 | > 10000 | 0.95 | > 2000 | 0.938 | > 2000 | 0.987 | > 5000
14 | HH (T-cell leukaemia, suspension) | 0.861 | > 10000 | 0.944 | > 2000 | 0.973 | > 2000 | 0.969 | > 5000
15 | HL-60 (acute myeloid leukaemia, suspension) | 0.962 | > 10000 | 0.968 | > 2000 | 0.99 | > 2000 | 0.956 | > 5000
16 | HOP-62 (lung adenocarcinoma, adherent) | 0.973 | > 10000 | 0.987 | > 2000 | 0.972 | > 2000 | 0.985 | > 5000
17 | HSC-39 (stomach, suspension) | 0.991 | > 10000 | 0.251 | 27.3 | 0.987 | > 2000 | 0.968 | > 5000
18 | HT (B-cell lymphoma, suspension) | 0.93 | > 10000 | 0.981 | > 2000 | 0.989 | > 2000 | 0.962 | > 5000
19 | HT-144 (melanoma, adherent) | 0.904 | > 10000 | 0.981 | > 2000 | 0.984 | > 2000 | 0.552 | 439
20 | HUTU-80 (digestive system, adherent) | 0.961 | > 10000 | 0.944 | > 2000 | 0.975 | > 2000 | 0.991 | > 5000
21 | IM-9 (myeloma, suspension) | 0.991 | > 10000 | 0.985 | > 2000 | 0.992 | > 2000 | 0.98 | > 5000
22 | IMR-5 (neuroblastoma, adherent) | 0.992 | > 10000 | 0.989 | > 2000 | 0.992 | > 2000 | 0.974 | > 5000
23 | IST-MEL1 (melanoma, adherent) | 0.71 | 2770 | 0.979 | > 2000 | 0.902 | > 2000 | 0.894 | > 5000
24 | IST-SL1 (small cell lung carcinoma, semi-adherent) | 0.987 | > 10000 | 0.987 | > 2000 | 0.969 | > 2000 | 0.986 | > 5000
25 | IST-SL2 (small cell lung carcinoma, suspension) | 0.942 | > 10000 | 0.966 | > 2000 | 0.969 | > 2000 | 0.989 | > 5000
26 | JAR (urogenital system, adherent) | 0.919 | > 10000 | 0.984 | > 2000 | 0.985 | > 2000 | 0.969 | > 5000
27 | JJN-3 (haematopoietic neoplasm, suspension) | 0.992 | > 10000 | 0.991 | > 2000 | 0.993 | > 2000 | 0.992 | > 5000
28 | JM1 (B-cell lymphoma, suspension) | 0.979 | > 10000 | 0.98 | > 2000 | 0.99 | > 2000 | 0.922 | > 5000
29 | JURL-MK1 (chronic myeloid leukaemia, suspension) | 0.986 | > 10000 | 0.89 | > 2000 | 0.979 | > 2000 | 0.987 | > 5000
